Test results as given in PubChem BioAssay (Tox21).
Values joined by “and” are separate entries in the source; they are usually repeats but may differ in a detail not shown here. Equal values may be shown once. The inconclusive results got no clear call from the source; some entries with a clear call stand among them for comparison. For some assays here: A potency beside an inconclusive call is a rough fit, not a confirmed value. Where a structure was tested more than once in an assay, its records may differ in their call. Active and inactive are the calls of the source. Unless noted, calls follow the shape of the dose curve; as a rule, active = well fitted curve in the direction sought with a large enough effect in the repeat runs; inconclusive = weak or mixed curves; inactive = no such curve, though single readings can be large; an effect the other way counts as inactive or inconclusive.

Legend:
[1] = qHTS assay to identify small molecule antagonists of the androgen receptor (AR) signaling pathway - cell viability counter screen (AID 743033; also: nearly all actives have a fitted effect of over 45% in size)
[2] = biological target: Androgen receptor (Homo sapiens) (UniProt P10275); assay: qHTS assay to identify small molecule antagonists of the androgen receptor (AR) signaling pathway (AID 743035; active = well fitted inhibition curve with a large enough effect in the signal ratio in the repeat runs, not every such curve was filed as active; inconclusive = weak or mixed curves, or effect the other way; inactive = no such curve, though single readings can be large or run the other way; the % refers to the signal ratio; as to activity change, negative = inhibition: % is scaled to controls: 0 for no effect and ±100 for the full control effect); details: HEK293 AR-UAS-bla, R1881-stimulated, beta-lactamase FRET, 16 h; activity change, negative = inhibition: at 58.5 µM (top of the series) unless noted
How it was run: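 Antagonist mode: AR-bla HEK293 cells co-treated with test compounds and agonist R1881 for 16 h at 37C, 5% CO2. Beta-lactamase activity read as FRET fluorescence after 2 h room-temperature substrate loading.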

[3] = biological target: Androgen receptor (Homo sapiens) (UniProt P10275); assay: qHTS assay to identify small molecule agonists of the androgen receptor (AR) signaling pathway (AID 743036; active = well fitted activation curve with a large enough effect in the signal ratio in the repeat runs, with a control signal flat, not every such curve was filed as active; inconclusive = weak or mixed curves, or effect the other way; inactive = no such curve, though single readings can be large or run the other way; the % refers to the signal ratio; as to activation: % is scaled to controls: 0 for no effect and ±100 for the full control effect); details: HEK293 AR-UAS-bla GripTite, beta-lactamase FRET ratio, 16 h; activation: at 62.4 µM (top of the series) unless noted
How it was run: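 Activation was read as beta-lactamase FRET signal from LiveBLAzer B/G substrate, added for 2 h at room temperature. Before that, GeneBLAzer AR-UAS-bla GripTite (HEK293) cells had 16 h compound exposure at 37C.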

[4] = qHTS assay to identify small molecule antagonists of the androgen receptor (AR) signaling pathway using the MDA cell line - cell viability counter screen (AID 743041; also: nearly all actives have a fitted effect of over 45% in size); details: MDA-kb2 viability, CellTiter-Fluor, 16 h, cells co-treated with R1881 androgen agonist; viability change, negative = cytotoxic: at 70.3 µM (top of the series) unless noted
How it was run: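 Viability read by CellTiter-Fluor fluorescence in the same wells as the antagonist screen, added after 15.5 h of a 16 h, 37C exposure. Human breast carcinoma MDA-kb2 AR-luc cells, compounds co-dosed with agonist R1881.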

[5] = qHTS assay to identify small molecule antagonists of the thyroid receptor (TR) signaling pathway - cell viability counter screen (AID 743064); details: GH3.TRE-Luc viability, CellTiter-Fluor, 24 h; activity change, negative = cytotoxic: at 70.3 µM (top of the series) unless noted; also: nearly all actives have a fitted effect of over 50% in size
How it was run: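 In-well cytotoxicity read by CellTiter-Fluor (30 min, 37 C) following 23.5 h exposure of GH3 cells bearing a TRE-luciferase sensor. Compounds were added alongside 1 nM (final) T3 to drive TR transactivation.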

[6] = biological target: Androgen receptor (Homo sapiens) (UniProt P10275); assay: qHTS assay to identify small molecule antagonists of the androgen receptor (AR) signaling pathway using the MDA cell line (AID 743042; also: nearly all actives have a fitted effect of over 55% in size)
How it was run: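 Antagonist mode: compounds plus R1881 agonist added to MDA-kb2 AR-luc cells, incubated 16 h at 37C. Luciferase reporter luminescence quantified, with multiplexed CellTiter-Fluor readout for cell viability.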

[7] = qHTS assay to identify small molecule antagonists of the thyroid receptor (TR) signaling pathway (AID 743065); also: nearly all actives have a fitted effect of over 55% in size
How it was run: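 Antagonism measured as loss of luciferase signal in GH3 cells stably carrying a TRE-luciferase reporter, co-treated with compound and T3 (1 nM final) for 23.5 h at 37 C. Viability was read in the same well by CellTiter-Fluor.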
Potency is read from the fitted curve at half-maximal effect; tags tell the direction and shape of the fitted curve or compound fluorescence and quenching.

Chain of UniProt P10275 (P10275 whole entry, looked up): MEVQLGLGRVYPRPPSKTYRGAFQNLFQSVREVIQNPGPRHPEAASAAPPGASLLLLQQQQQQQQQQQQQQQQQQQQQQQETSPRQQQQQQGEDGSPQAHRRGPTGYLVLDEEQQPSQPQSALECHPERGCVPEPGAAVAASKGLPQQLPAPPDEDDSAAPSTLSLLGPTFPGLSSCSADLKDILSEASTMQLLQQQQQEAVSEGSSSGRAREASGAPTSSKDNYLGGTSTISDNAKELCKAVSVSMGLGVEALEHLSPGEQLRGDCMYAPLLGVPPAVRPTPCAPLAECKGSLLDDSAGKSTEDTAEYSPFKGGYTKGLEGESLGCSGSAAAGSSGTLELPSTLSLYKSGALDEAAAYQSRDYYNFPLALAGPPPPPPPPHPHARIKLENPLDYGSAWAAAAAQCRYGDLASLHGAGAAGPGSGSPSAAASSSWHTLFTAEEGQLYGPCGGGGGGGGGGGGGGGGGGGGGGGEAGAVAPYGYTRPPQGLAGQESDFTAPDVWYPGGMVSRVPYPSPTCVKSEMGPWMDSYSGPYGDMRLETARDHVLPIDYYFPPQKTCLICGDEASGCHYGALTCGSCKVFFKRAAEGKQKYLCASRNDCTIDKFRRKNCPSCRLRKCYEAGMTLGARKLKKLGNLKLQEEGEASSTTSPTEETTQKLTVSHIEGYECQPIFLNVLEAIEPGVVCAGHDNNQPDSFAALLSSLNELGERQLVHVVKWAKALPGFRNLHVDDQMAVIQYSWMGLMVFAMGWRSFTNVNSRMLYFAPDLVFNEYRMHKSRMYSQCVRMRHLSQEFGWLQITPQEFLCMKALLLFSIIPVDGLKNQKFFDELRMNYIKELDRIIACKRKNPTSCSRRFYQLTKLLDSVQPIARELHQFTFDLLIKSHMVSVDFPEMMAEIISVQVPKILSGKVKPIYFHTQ

In the case of Oc1ccc(O)cc1, the Potency [1] is reported as “inactive and inconclusive: 38.7 µM [cytotoxic, partial curve, poor fit]”.
With Cc1ccc(O)c2ncccc12 the Potency [1] was active: 16.9 µM, the Potency [2] was active: 26.8 µM and the Potency [3] was “inactive”. The Potency [4] was active: 18.8 µM and the Potency [5] was active: 6.68 µM.
In the case of C=C1C(CCl)(CCl)C2(Cl)C(Cl)C(Cl)C1(Cl)C2(Cl)Cl (stereo not drawn), the Potency [1] is reported as active: 54.3 µM, the Potency [2] is reported as active: 34.3 µM and the activity change, negative = inhibition [2] is reported as inconclusive: -149%. The Potency [3] was inconclusive: 26.8 µM and inconclusive: 60.9 µM, the Potency [4] was inconclusive: 33.5 µM [cytotoxic] and the Potency [6] was inconclusive: 27 µM [inhibitor, partial curve, poor fit]. The Potency [5] was active: 5.96 µM and active: 67.8 µM.
For NC1(c2ccc(-c3nc4ccn5c(=O)[nH]nc5c4cc3-c3ccccc3)cc2)CCC1, the Potency [1] was inconclusive: 10.7 µM [cytotoxic, partial curve], the Potency [4] was inconclusive: 33.5 µM [cytotoxic, partial curve, poor fit] and the Potency [5] was active: 13.3 µM.
For CCCCCCCCCCCCN(CCO)CCO, the Potency [1] was active: 43.5 µM, the Potency [2] was inconclusive: 24.4 µM [rising, full curve, poor fit] and the Potency [3] was inconclusive: 61.4 µM [cytotoxic]. The Potency [7] was active: 15.3 µM.
In the case of CN1CCN(CCCN2c3ccccc3Sc3ccc(C(F)(F)F)cc32)CC1, the Potency [1] is reported as inconclusive: 16.9 µM [cytotoxic, partial curve], the Potency [4] is reported as inconclusive: 31.2 µM [cytotoxic, single point] and the Potency [5] is reported as active: 10.6 µM.
